According to PubChem BioAssay AID1963576 (National Center for Advancing Translational Sciences (NCATS), 2024):
Among all 46,000 compounds or so, about 60 (0.1%) were called active. Not shown: some 3% with an inconclusive outcome. The call rests on the fitted dose curve; in most records, active means well fitted inhibition curve with a large enough effect; inconclusive means small, poorly fitted or top-dose-only effect; inactive means no such curve, though single readings can be large or run the other way. The list shows a part of the results.

Assay: Primary qHTS assay for Inhibitors of ovarian cancer metastasis using an organotypic tumor microenvironment (TME) model. Further: nearly all actives have a fitted effect of over 65% in size.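 On activity change, negative = inhibition: plate controls were DMSO wells for no effect and tomatine positive control wells for full effect.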
Conditions: SKOV3ip1-GFP adhesion/invasion on 3D omental model, fluorescence; series mostly up to 45.8 µM; activity change, negative = inhibition: at the top concentration
In short: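 Adhesion/invasion was scored as fixed GFP-labeled SKOV3ip1 cell counts (488/509 nm), normalized to DMSO and tomatine controls. Cancer cells in serum-free medium, with four compound doses (0.36-46 umol/L), sat 2 hr at RT then 16 hr at 37 C on a 48 hr fibroblast/mesothelial/ECM culture.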

Activity change, negative = inhibition, inactive:
CC(=O)c1ccc(NC(=O)c2ccc3c(c2)nnn3C2CCCC2)cc1 2.76%
CCOc1ccc(C(=O)CSc2nc3cc(C(=O)NC4CCCC4)ccc3c(=O)n2CC2CCCO2)cc1 (centres undefined) 15.6%
Cc1cccc(C(=O)Nc2ccc(C(=O)OCc3cc(=O)n4c5c(sc4n3)CCCC5)cc2)c1 -10.6%
CN1C(=O)Cc2cc(S(=O)(=O)N3CCN(c4cccc(C(F)(F)F)c4)CC3)ccc21 -6.93%
Cc1ccc(C)c(NC(=O)c2nc(S(C)(=O)=O)ncc2N(Cc2ccc(C(C)(C)C)cc2)Cc2ccco2)c1 0.643%
Cn1c(=O)c2c(nc(Oc3ccc(F)cc3)n2Cc2ccc(F)cc2)n(C)c1=O -4.22%
COc1ccccc1NC(=O)c1sc2nc(C)c(C(=O)Nc3ccc(C)cc3C)c(-c3ccc(Br)cc3)c2c1N 6.83%
Cc1ccccc1CNC(=O)Cn1ccc2cc(S(=O)(=O)N3CCCCC3)ccc21 7.11%
CC(C)=CCCC(C)=CCCC(C)=CCSc1ccccc1C(=O)O -15.4%
CCOc1ccc(C(=O)c2cn(CC(=O)Nc3ccc4c(c3)OCCO4)c3ccc(OC)cc3c2=O)cc1 0.615%
CCCc1nn2c(=O)cc(COC(=O)c3cccs3)nc2s1 7.96%
O=C(NCc1ccccc1)c1cc2sccc2n1Cc1ccc(F)cc1 -3.38%
Cc1ccc(CNC(=O)C(=O)NCC(c2cccnc2)N2CCN(c3ccc(F)cc3)CC2)cc1 (centres undefined) 7.1%
CCOC(=O)c1c(S(=O)(=O)NCC(=O)Nc2cc(C)ccc2OC)c(C)n(C)c1C -5.49%
Cc1ccccc1C(=O)OCc1cc(=O)n2nc(C3CC3)sc2n1 0.523%
Cc1ccc(C(=O)OCc2cc(=O)n3nc(-c4cccs4)sc3n2)cc1 -3.94%
CCOC(=O)N1CCC(NC(=O)c2ccc3c(c2)N(Cc2cc(C)ccc2C)C(=O)c2ccccc2S3(=O)=O)CC1 -13.6%
CCOc1ccc(CCn2c3c(c(=O)[nH]c2=O)C(NC(=O)c2ccccc2)(C(F)(F)F)C(=O)N3)cc1OCC (centres undefined) 4.24%
CCN(CC)c1ccc2cc(-c3nc(-c4ccc(Cl)cc4Cl)cs3)c(=O)oc2c1 -4.07%
COc1ccccc1NC(=O)Cn1c(=O)n(Cc2cccs2)c(=O)c2cccnc21 2.19%
O=C(Cn1cc(SCc2ccccc2F)c2ccccc21)N1CCCCCC1 -8.59%
COc1cccc(-c2cnc(NCc3ccccc3Cl)n2C)c1 -20.5%
CCOc1ccccc1NC(=O)c1cc(S(=O)(=O)NC2CCCC2)ccc1F 3.66%
Cc1ccc(C(=O)Nc2ccc3oc(-c4cccnc4)nc3c2)c(Cl)c1 -16.8%
CC(=O)N1CCCc2cc(S(=O)(=O)N3CCCC(C(=O)Nc4ccc(C)c(C)c4)C3)ccc21 (centres undefined) 5.42%
O=c1ncn2nc(Sc3ccc(F)cc3F)ccc2c1-c1c(Cl)cccc1Cl -6.69%
Cc1coc2cc3oc(=O)c(CC(=O)NCc4ccccc4)c(C)c3cc12 -3.46%
CCOc1ccc2nc(N3CCC(C(=O)Nc4c(C)cccc4C)CC3)sc2c1 -8.27%
Cc1ccc(S(=O)(=O)Nc2cc3c(cc2Cl)n(C)c(=O)c(=O)n3C)cc1 14.8%
Cc1ccc(C)c(N2CCN(C(=O)c3cc4c(=O)n(Cc5cccs5)ccc4nc3C)CC2)c1 0.532%
CCCCOc1ccc(CNC(=O)c2ccc(NC(=O)N3CCSc4ncccc43)cc2)cc1 -6.72%
Cc1ccc(-n2ncc(C(=O)N3CCC(c4ccccc4)C3)c2C2CCN(C(=O)OC(C)(C)C)CC2)cc1 (centres undefined) 3.7%
O=c1[nH]cc(F)c(=O)[nH]1 -8.04%
Cc1cc(C)c2oc(C(=O)Nc3ccc(S(=O)(=O)N(C)c4ccccc4)cc3)cc(=O)c2c1 7.43%
COC(=O)CCN(C(=O)c1c(C)oc2ncnc(N3CCOCC3)c12)c1ccccc1 -7.93%
CCCc1nn2c(C)c(-c3ccccc3)nc2s1 2.92%
O=S(=O)(Nc1cccc(-c2ccc(N3CCOCC3)nn2)c1)c1ccc(F)cc1F 2.22%
CS(=O)(=O)c1ccc([C@@H](O)[C@@H](CO)NC(=O)C(Cl)Cl)cc1 -15%
O=C(/C=C/c1ccccc1)N1CCN(Cc2cc(=O)n3nc(-c4ccccc4)sc3n2)CC1 -8.35%
CCC(=O)N1CCc2cc(S(=O)(=O)N(C)c3cccc(C)c3)ccc21 -8.04%
COc1c(C)c2c(c(O)c1CC=C(C)CCC(=O)O)C(=O)OC2 -8.11%
Cc1ccccc1NC(=O)c1sc2nc(N3CCOCC3)c3c(c2c1N)CC(C)(C)OC3 0.836%
CCCOc1ccc(C2C(=O)N(C3CCCCCC3)CC(=O)N2CCCOCC)cc1OC (centres undefined) 3.55%
CCOc1ccccc1N1CC(c2nc3ccccc3n2CCOc2ccc(C(C)(C)C)cc2)CC1=O (centres undefined) -7.9%
CCN(c1cc(C)cc(C)c1)S(=O)(=O)c1nnc(NC(=O)c2cccc(F)c2)s1 -6.17%
COc1ccc2c(c1)c1c(c(=O)n(CCc3ccccc3)c(=O)n1Cc1ccc(Cl)cc1)n2C 30.6%
Cc1ccc(NC(=O)/C(C#N)=C\c2ccc(Cl)cc2Cl)cc1C 1.57%
Cc1ccc(-c2ccc(CCC(=O)O)n2-c2ccc(C(C)C)cc2)cc1 6.58%
Nc1c(-c2nc(-c3ccccc3)no2)nnn1CC(=O)Nc1ccccc1 -2.78%

outcome, inactive:
COc1ccc(NC(=O)CSc2nc3ccccc3nc2Cc2ccc(C)cc2)cc1Cl
CC(C)(C)c1ccc(S(=O)(=O)Nc2ccc(O)c(Sc3nc4ccccc4s3)c2)cc1
Cc1ccc(C)c(CN2C(=O)c3ccccc3S(=O)c3ccc(C(=O)N(C)Cc4ccccc4)cc32)c1 (centres undefined)
O=c1c2c3c(sc2n(Cc2cc(=O)n4ccccc4n2)c(=O)n1-c1ccc(Cl)cc1)CCC3
Cc1cccc(N2CCN(C(=O)C3CCN(S(=O)(=O)c4ccc5c(c4)oc(=O)n5C)CC3)CC2)c1C
COC(=O)CSc1nnc2n(-c3ccccc3)c(=O)c3c4c(sc3n12)COC(C(C)C)C4 (centres undefined)
CCOc1ccccc1N(C)C(=O)Cn1nc(Cc2cccnc2)c2ccccc2c1=O
COc1cc(NC(=O)N2CCN(c3cc(-c4noc(C)n4)ccc3C)CC2)cc(OC)c1OC
CCN(CC)CCNC(=O)c1cc2c(=O)[nH]c3ccc(C)cc3c2s1
COc1ccccc1CNC(=O)Cn1ncc2c(C)n(Cc3ccccc3Cl)c(C)c2c1=O
